Measurements: the supplement of paper PMC4466236
Whole data set: some 33,000 sequences, median “E-score (dimensionless, -0.5 to 0.5)” near -0.058, cut for the highest 2% near 0.35. This is one part of the list.

test system: MvaT; assay: PBM 8-mer E-score (mean of HK and ME arrays) (E-score (dimensionless, -0.5 to 0.5)); higher = stronger relative binding preference; most listed sequences are background and not binding sites
How it was run: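 Full-length P. aeruginosa MvaT, with glutathione S-transferase fused to its N-terminus (cloned into pTH6838 by isothermal assembly), was tested by protein binding microarray using a previously described protocol. Two universal double-stranded 60-mer arrays (ME and HK) were used, each with a constant 25-mer primer region and a variable 35-mer region covering all 8-mers. The rank-based 8-mer E-score (-0.5 to 0.5) is the mean of the two arrays, parsed with a custom Python script.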

Point of comparison: CGTTGAGC, “PBM 8-mer E-score” value -0.226. Against it:
- AACGCTTG — higher, -0.0287
- ACCTGATC — lower, -0.266
- AACGATGA — higher, -0.0169
- ACCCATAT — higher, 0.154
- GTTTACGA — higher, -0.0306
- ACTCGGAG — higher, -0.0597
- CAGGCGCG — lower, -0.265
- CCGCTCCG — higher, -0.172
- CGAGAGCG — lower, -0.228
- TACTATAA — higher, 0.387
- CAGCAACC — higher, -0.14
- ACCGATTA — higher, 0.229
- AATAGGTC — higher, -0.0296
- ACTCGCTA — higher, -0.0529
- AATACCTG — higher, 0.161
- CCTCCGAA — lower, -0.241
- GAACAGGC — higher, -0.147
- AATAGCGA — higher, 0.174
- AAACCACT — higher, -0.0232
- GCCCGGAC — lower, -0.25
- CTGATTGA — higher, -0.0328
- GCACTTCC — higher, 0.0843
- TAGGCAAA — higher, -0.0599
- AAAGGCGG — higher, -0.0871
- ATTCCCAC — higher, 0.0666
- AATGAGGC — higher, -0.0425
- GCAATCAC — higher, -0.172
- CCGACAAC — higher, 0.00549
- AATGAGAA — higher, -0.00156
- CCTGTACC — higher, -0.168
- TATAACAA — higher, 0.355
- ATTTCGTC — higher, 0.0525
- CCCGAGGG — lower, -0.257
- GTGAAGTA — higher, 0.0571
- ACCCACCT — higher, -0.0645
- AGTCGAAT — higher, -0.00918
- AGGTGGGC — higher, -0.177
- AACCGTTC — higher, 0.0958
- CCTGTCAC — higher, -0.191
- GAGAAGTA — higher, 0.233
- ATTGCACA — higher, 0.0198
- CGCACGAC — higher, -0.192
- CGGGGAGC — higher, -0.222
- CGTCACAG — higher, -0.0835
- ACGCACAC — higher, -0.00993
- AGTGTGAT — higher, 0.2
- ATAAGCGA — higher, 0.0934
- AGTTCCTA — higher, 0.0429
- AGCACCCA — higher, -0.0415
- ATACGAAC — higher, 0.0915
- GAGGGGGA — lower, -0.327
- CTCCCAGA — higher, -0.0893
- GCCATGGC — higher, -0.151
- ACAGAAGC — higher, -0.122
- AAACTACA — higher, 0.162
- CATCGAAC — higher, -0.0585
- ACGGCAGA — higher, -0.166
- ACTGATCG — higher, -0.0977
- GCCTGGGA — lower, -0.285
- ATAATGCG — higher, 0.271
- GGCTCCCC — lower, -0.418
- CGGGATAC — higher, -0.0729
- ATCATGTG — higher, -0.103
- AACTTAGT — higher, 0.289
- CTACAAAG — higher, -0.188
- CATGTCCA — higher, -0.00463
- CTACCCAA — higher, -0.132
- GTCGCGCA — higher, -0.104
- CATTCAGC — higher, -0.199
- AAGGGCAA — higher, 0.0932
- ATACCCCG — higher, -0.126
- AGTGACAG — higher, -0.17
- GATCAGAA — higher, -0.00247
- ACAGCGTA — higher, -0.193
- GAAGGACA — higher, -0.0699
- ACTCTACG — higher, -0.125
- AGTTTCTC — higher, 0.115
- AAATGTAA — higher, 0.373
- GGCCTGAA — higher, -0.182
- GGAAACCA — higher, -0.073
- CAATCAAC — higher, 0.116
- ACTTGTCG — higher, -0.114
- CCGCTTGA — higher, -0.147
- ACCCGACC — higher, -0.189
- GATCGACC — higher, -0.209
- TAGGGCAA — higher, -0.0392
- CAGTCATA — higher, -0.0943
- ATAATGTA — higher, 0.401
- CAGTGTTA — higher, 0.14
- AACAGGCG — higher, -0.0218
- GCGTGGCA — higher, -0.0664
- CATGGACA — higher, -0.0229
- CAGCTATG — higher, -0.165
- ATCACCTG — higher, -0.0796
- GACCCAAA — higher, 0.0243
- GGCAAGAC — higher, -0.188
- CGCCACCC — higher, -0.121
- TAAGTGAA — higher, 0.116
- ATGCACTA — higher, -0.018
- GTTATTCA — higher, 0.236
- CAAAATAC — higher, 0.251
- CCAATTGA — higher, 0.0512
- GCCCTCCC — lower, -0.3
- AGCGATAT — higher, 0.199
- AACCCATC — higher, -0.0855
- CCCGTAAG — higher, -0.0526
- ACCATTTC — higher, -0.0466
- CCTCTTTA — higher, 0.0334
- GTAGTGTA — higher, 0.0767
- ATGGACAT — higher, 0.0935
- ATTATTGG — higher, 0.293
- GCTAAAGC — higher, -0.182
- CCTAGATC — higher, -0.178
- GCGAGCCA — higher, -0.16
- CAGATCGG — higher, -0.145
- CGTACAGC — higher, -0.216
- ACTCTGCA — higher, -0.0512
- ACAGCCCC — lower, -0.322
- CCTACAAG — higher, -0.202
- GAGAGATA — higher, 0.142
- ATGATAGA — higher, 0.216
- CGACTCTA — higher, -0.0974
- CCCTGACC — lower, -0.29
- CACCACAG — higher, 0.0558
- ACCAAACA — higher, 0.16
- ACGCGATG — higher, -0.0332
- CCAGAAGA — higher, -0.112
- CCTTTCAA — higher, 0.0897
- GCGCAGAC — higher, -0.149
- CTCCCGAC — higher, -0.14
- AAGGCTTC — lower, -0.32
- CGGTTCAG — higher, -0.146
- GGGTGAGA — higher, -0.0612
- CAGAAATG — higher, 0.103
- CTAGCGTC — lower, -0.298
- ACTGTATA — higher, 0.305
- AGTGATCG — higher, -0.118
- ATGAACGG — higher, -0.121
- CAAAGAAC — higher, 0.131
- ACCTCAAC — higher, -0.185
- CCATCAGA — higher, -0.0987
- GTATAGAA — higher, 0.0668
- CTGACGTA — higher, -0.0317
- CTCGGTGA — higher, -0.154
- AGGATCAC — higher, -0.113
- CCCTCAAG — lower, -0.253
- CTGGTGCC — higher, -0.116
- AAATAACT — higher, 0.375
- CATTAAGG — higher, 0.0854
- CGACACCG — lower, -0.239
- AGCTATGG — lower, -0.27
- ATACCATA — higher, 0.29
- ACGCCCGT — lower, -0.237
- TGGACGAA — higher, -0.181
- CCCTGGTA — higher, -0.221
- GTCGACGA — higher, -0.125
- ACGGCGAA — higher, -0.0402
- ATCTGTAC — higher, 0.0307
- CATGAAAC — higher, 0.021
- TACGTCCA — higher, -0.0282
- GGAGTGGA — lower, -0.246
- CAACCTAA — higher, 0.0563
- GAAAGGCA — higher, -0.212
- AACGAGCG — higher, -0.139
- AAGTCGCG — higher, -0.0326
- ATTCTGCG — higher, -0.0487
- AATCTGGC — higher, 0.00801
- GATGCTCA — lower, -0.298
- TCGGTTCA — higher, -0.106
- CACCTATC — higher, -0.138
- CTACCGGA — higher, -0.0962
